Results as given in publication PMC4336329 (PLoS ONE, 2015).
Among all 310,000 compounds or so, about 2,200 (0.71%) showed an effect of 50% or more. The effect is printed as a negative number. Some of the results follow.

The compounds below were run against human ether-à-go-go-related gene (hERG) potassium channel (human, UniProt Q12809) (assay: primary screen, population patch clamp on CHO cells stably expressing hERG).
Chain of human ether-à-go-go-related gene (hERG) potassium channel (Q12809 whole entry, looked up): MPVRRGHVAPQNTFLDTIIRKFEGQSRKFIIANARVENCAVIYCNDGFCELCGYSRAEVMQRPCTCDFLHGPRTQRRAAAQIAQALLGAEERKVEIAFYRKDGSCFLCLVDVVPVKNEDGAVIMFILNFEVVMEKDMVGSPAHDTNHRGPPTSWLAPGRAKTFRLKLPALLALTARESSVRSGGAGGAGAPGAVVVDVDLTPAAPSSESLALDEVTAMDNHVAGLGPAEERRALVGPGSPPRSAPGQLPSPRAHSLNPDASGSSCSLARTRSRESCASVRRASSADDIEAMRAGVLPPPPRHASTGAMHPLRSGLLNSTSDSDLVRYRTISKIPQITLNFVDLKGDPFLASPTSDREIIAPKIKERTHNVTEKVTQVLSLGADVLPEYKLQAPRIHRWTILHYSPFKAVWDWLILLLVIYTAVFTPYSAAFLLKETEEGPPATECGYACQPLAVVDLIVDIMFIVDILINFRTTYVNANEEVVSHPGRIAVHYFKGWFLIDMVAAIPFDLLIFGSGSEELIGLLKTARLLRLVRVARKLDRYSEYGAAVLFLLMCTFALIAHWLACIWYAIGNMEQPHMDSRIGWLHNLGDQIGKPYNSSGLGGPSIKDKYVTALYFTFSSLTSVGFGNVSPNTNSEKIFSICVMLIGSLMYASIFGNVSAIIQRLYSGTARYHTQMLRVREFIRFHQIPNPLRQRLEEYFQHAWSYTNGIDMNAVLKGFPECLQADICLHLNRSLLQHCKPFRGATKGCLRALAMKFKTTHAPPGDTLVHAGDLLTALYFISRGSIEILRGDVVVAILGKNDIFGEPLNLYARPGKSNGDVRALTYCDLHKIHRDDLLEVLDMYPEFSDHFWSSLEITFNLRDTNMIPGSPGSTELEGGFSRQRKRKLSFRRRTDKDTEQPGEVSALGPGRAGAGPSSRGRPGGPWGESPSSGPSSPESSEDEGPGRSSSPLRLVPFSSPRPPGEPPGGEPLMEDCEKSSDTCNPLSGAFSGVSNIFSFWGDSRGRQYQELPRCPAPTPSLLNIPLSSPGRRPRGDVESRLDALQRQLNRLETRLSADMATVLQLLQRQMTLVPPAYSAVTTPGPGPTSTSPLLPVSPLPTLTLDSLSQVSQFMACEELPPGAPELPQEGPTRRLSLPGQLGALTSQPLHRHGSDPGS
For O=C(CCCC(=O)NC1CCCC1)NC1CCCC1, the “hERG current change (%, negative = inhibition) at 1uM” value was 9.37%.
CCOC1(NC(=O)c2ccccc2)C(C)=CC(=O)C=C1C was tested, and the “hERG current change (%, negative = inhibition) at 1uM” value was -21.8%.
For CC1=CCC(C(=O)N/N=C/c2cccs2)C(c2ccc(F)cc2)C1 (stereo not drawn), the “hERG current change (%, negative = inhibition) at 1uM” value was 4.87%.
Cc1ccc(CNC(=O)N2CCN(C)CC2)cc1 was tested, and the “hERG current change (%, negative = inhibition) at 1uM” value was 3.96%.
COc1ccc(N2C(=O)/C(=C3/C=CC=CN3C)SC2=S)cc1 was tested, and the “hERG current change (%, negative = inhibition) at 1uM” value was 20.6%.
With COC(=O)N/N=C/c1cccnc1 the “hERG current change (%, negative = inhibition) at 1uM” value was 14%.
For CCOc1ccc(NC(=S)N/N=C(\C)Cc2ccc(OC)cc2)cc1, the “hERG current change (%, negative = inhibition) at 1uM” value was 6.3%.
With O=C1CSC(c2ccncc2)N1Cc1ccco1 (stereo not drawn) the “hERG current change (%, negative = inhibition) at 1uM” value was 4.51%.
In the case of CSC1=NCCN1S(=O)(=O)c1ccc(F)cc1, the “hERG current change (%, negative = inhibition) at 1uM” value is reported as -8.01%.
With CC(OC(=O)C(NC(=O)c1ccco1)C(C)C)C(=O)Nc1ncc(Cl)cc1Cl (stereo not drawn) the “hERG current change (%, negative = inhibition) at 1uM” value was -9.25%.
With Oc1ccc2[nH]ccc2c1 the “hERG current change (%, negative = inhibition) at 1uM” value was 6.73%.
In the case of COc1cc2cc(CCOC(=O)c3ccco3)oc(=O)c2cc1OC, the “hERG current change (%, negative = inhibition) at 1uM” value is reported as 12.8%.
For COc1ccc(S(=O)(=O)N(CC(=O)N2CCN(c3ccccc3)CC2)c2ccccc2)cc1, the “hERG current change (%, negative = inhibition) at 1uM” value was 4.88%.
In the case of O=C(Nc1ccc2c(c1)nc1n2CCOC1)C1CCCCC1, the “hERG current change (%, negative = inhibition) at 1uM” value is reported as 7.97%.
With Cc1cc(=O)n2c(n1)NC(Nc1cccc(C)c1C)=NC2c1ccccc1 (stereo not drawn) the “hERG current change (%, negative = inhibition) at 1uM” value was 14.8%.
In the case of O=C1NC(=O)C(=Cc2ccc(OCCOc3ccc([N+](=O)[O-])cc3)cc2)C(=O)N1, the “hERG current change (%, negative = inhibition) at 1uM” value is reported as -2.94%.
With O=C(COC(=O)Cc1ccsc1)NCc1ccccc1 the “hERG current change (%, negative = inhibition) at 1uM” value was 13.3%.
In the case of COc1ccc(-n2cnc3cc(N)ccc32)cc1, the “hERG current change (%, negative = inhibition) at 1uM” value is reported as 15.3%.
Cc1ccc(CNC(=O)C2CCN(S(=O)(=O)N3CCCCC3)CC2)cc1 was tested, and the “hERG current change (%, negative = inhibition) at 1uM” value was 3.51%.
With CCOC(=O)C1CCN(C(=O)COc2ccc(N(C)S(=O)(=O)c3ccc(C)cc3)cc2)CC1 the “hERG current change (%, negative = inhibition) at 1uM” value was -3.73%.
COc1cccc(CNCCOCCO)c1OC.Cl was tested, and the “hERG current change (%, negative = inhibition) at 1uM” value was 7.56%.
In the case of Cc1cc(/C=C2/C(=O)NC(=O)N(c3ccccc3)C2=O)c(C)n1-c1ccc(F)cc1, the “hERG current change (%, negative = inhibition) at 1uM” value is reported as 3.09%.
In the case of Cc1ccc(S(=O)(=O)N(C)C)cc1NC(=O)COC(=O)COc1ccccc1[N+](=O)[O-], the “hERG current change (%, negative = inhibition) at 1uM” value is reported as 8.13%.
In the case of Cc1cc(NC(=O)CSCc2nc(-c3cccc(F)c3)oc2C)no1, the “hERG current change (%, negative = inhibition) at 1uM” value is reported as 17.4%.
For Cc1nc(NC(=S)NC(=O)c2cccs2)ccc1Br, the “hERG current change (%, negative = inhibition) at 1uM” value was 10.6%.
Nc1ccc(C(=O)OCc2nc3c(ccc4ccccc43)[nH]2)cc1 was tested, and the “hERG current change (%, negative = inhibition) at 1uM” value was 14.2%.
In the case of O=C(c1ccccc1OC(F)F)N1CCN(S(=O)(=O)c2ccc3c(c2)OCCCO3)CC1, the “hERG current change (%, negative = inhibition) at 1uM” value is reported as -2.97%.
With CC(=O)N1CCN(c2ccnc3cc(Cl)ccc23)CC1 the “hERG current change (%, negative = inhibition) at 1uM” value was -23.2%.
For N=c1c(C(=O)NCc2ccco2)cc2c(=O)n3ccccc3nc2n1CCc1ccccc1, the “hERG current change (%, negative = inhibition) at 1uM” value was -84.2%.
CC(=O)c1c(C)[nH]c(C(=O)COC(=O)c2cc(S(=O)(=O)N(C)c3ccccc3)ccc2Cl)c1C was tested, and the “hERG current change (%, negative = inhibition) at 1uM” value was 5.71%.
For CCOc1ccc(NC(=O)C2CCCN(C(=O)Nc3ccccc3)C2)cc1 (stereo not drawn), the “hERG current change (%, negative = inhibition) at 1uM” value was 11.1%.
Cc1noc(C)c1C(=O)N1CCN(Cc2ccccc2)CC1 was tested, and the “hERG current change (%, negative = inhibition) at 1uM” value was 8.36%.
In the case of CCOc1cc(/C=N/NC(=O)c2cccnc2)ccc1O, the “hERG current change (%, negative = inhibition) at 1uM” value is reported as 7.47%.
With CC(C)Oc1ccc(OCCCN2CCCCCC2)cc1.O=C(O)C(=O)O the “hERG current change (%, negative = inhibition) at 1uM” value was -14.1%.
For CCNC(=O)c1cc2ccccc2o1, the “hERG current change (%, negative = inhibition) at 1uM” value was 4.58%.
Cc1cc(C(=O)O)ccc1-c1ccc(CO)o1 was tested, and the “hERG current change (%, negative = inhibition) at 1uM” value was 17.8%.
With Cc1ccc(OCC(=O)Nc2ccc(S(=O)(=O)N3CCCCC3)cc2)c([N+](=O)[O-])n1 the “hERG current change (%, negative = inhibition) at 1uM” value was 26.3%.
For O=S(=O)(c1ccc(F)cc1)c1nc(-c2ccccc2F)oc1N1CCCCC1, the “hERG current change (%, negative = inhibition) at 1uM” value was -8.49%.
For O=C(COc1ccc(Cl)cc1Br)N1CCN(S(=O)(=O)c2ccccc2)CC1, the “hERG current change (%, negative = inhibition) at 1uM” value was 5.13%.
For O=C(NCCc1ccc(Cl)cc1)C1CCN(S(=O)(=O)N2CCCC2)CC1, the “hERG current change (%, negative = inhibition) at 1uM” value was -0.168%.
CSc1ccccc1NC(=O)c1ccc(CN2CCOCC2)cc1 was tested, and the “hERG current change (%, negative = inhibition) at 1uM” value was 12.4%.
For O=C(O)c1nn(Cc2nc3ccccc3o2)c(=O)c2ccccc12, the “hERG current change (%, negative = inhibition) at 1uM” value was 16.2%.
Cc1ccc(Cn2c(CN3CCN(C(=O)c4ccco4)CC3)nc3c2c(=O)n(C)c(=O)n3C)cc1 was tested, and the “hERG current change (%, negative = inhibition) at 1uM” value was -18.8%.
COc1ccc(N=Cc2cc3c(cc2O)OC(N)=C(C#N)C3c2ccccc2)cc1 (stereo not drawn) was tested, and the “hERG current change (%, negative = inhibition) at 1uM” value was 7.56%.
With O=C1NC(=O)C2(COC(c3cccnc3)OC2)S1 (stereo not drawn) the “hERG current change (%, negative = inhibition) at 1uM” value was 10.9%.
